The whole screen tested about 94,000 compounds, of which about 6,200 (6.6%) were called active. The inconclusive results got no clear call from the source; some entries with a clear call stand among them for comparison. Calls follow the shape of the dose curve; as a rule, active = well fitted inhibition curve with a large enough effect; inconclusive = small, poorly fitted or top-dose-only effect; inactive = flat fitted curve, though single readings scatter. A potency beside an inconclusive call is a rough fit, not a confirmed value.
assay: Cytotoxic Profiling in HEK 293 Cell Line of Diverse Libraries Using Quantitative High-Throughput Screening; conditions: HEK 293 viability, ATP luminescence (CellTiter-Glo), 48-72 h; series mostly up to 115 µM; also: nearly all actives have a fitted effect of over 60% in size
Outline: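 Read-out: CellTiter-Glo ATP luminescence. Cells: HEK 293, 250 cells/well. Exposure: 48 or 72 hr, 37 degree Celsius.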
Potency is read from the fitted curve at half-maximal effect; tags tell the direction and shape of the fitted curve.

Structure (SMILES)	Potency
COc1ccc(Cl)cc1-c1ccc2c(c1)C(=O)N1C[C@@H](NS(=O)(=O)c3ccc(F)cc3)C[C@H]1C(=O)N2	active: 35.5 µM
Cc1nn(-c2ccc(C(F)(F)F)cc2)c(C)c1[C@@H]1C=C[C@@H](NS(=O)(=O)c2ccccc2)C1	active: 44.7 µM
O=S(=O)(N[C@H]1CO[C@H]2[C@@H]1OC[C@@H]2Nc1nccc(C2CCCC2)n1)c1cccc2cccnc12	inconclusive: 79.4 µM [inhibitor, partial curve, poor fit]
O=C(Nc1ncc(-c2ccccc2)c2c1OCC2)C1CCOCC1	inconclusive: 12.6 µM [inhibitor, full curve, poor fit]
O=C(C[C@@H]1CCNC[C@@H]1Cc1cc(COc2ccccc2)on1)NCc1ccc(F)cc1	inconclusive: 50.1 µM [inhibitor, partial curve, poor fit]
CC(C)CC(=O)Nc1ccc2c(c1)CCC(=O)N2CC(C)C	inconclusive: 89.1 µM [inhibitor, single point]
COCCn1c(C)cnc1CC1CCCN(S(=O)(=O)c2ccccc2)C1 (configuration not stated)	inconclusive: 79.4 µM [inhibitor, partial curve, poor fit]
C#CCNC(=O)c1cc(-c2ccc(C(F)(F)F)cc2)nc2c1cnn2C	active: 25.1 µM
O=C(Cc1ccsc1)N1CCCn2cc(-c3ccccc3F)nc21	inconclusive: 70.8 µM [inhibitor, partial curve, poor fit]
O=C(NCCC1CCCCC1)c1ccc2nccn2c1	active: 50.1 µM
O=C1CCCCC(Cc2ccccc2)(C(=O)NCc2cccc(C(F)(F)F)c2)N1 (configuration not stated)	inconclusive: 44.7 µM [inhibitor, partial curve, poor fit]
CCCn1nccc1C(=O)N1CCCC(CCc2cccc(C(F)(F)F)c2)C1 (configuration not stated)	active: 25.1 µM
Cc1nn2c(c1-c1ccccc1N1CCCC1)N(C(=O)C(C)C)CCC2	active: 35.5 µM
O=C(CN1C(=O)NC(c2ccccc2Cl)C2=C1COC2=O)Nc1ccc(F)cc1F (configuration not stated)	inconclusive: 100 µM [inhibitor, single point]
COCCN1C(=O)c2ccccc2C(C(=O)NC2CCCC2)C12CCCCC2 (configuration not stated)	inconclusive: 79.4 µM [inhibitor, single point]
COC(=O)[C@@H]1Cc2ncn(Cc3ccccc3)c2CN1C(=O)c1cccs1	inconclusive: 100 µM [inhibitor, partial curve]
CC(C)CCN1CCOc2cc(C(=O)NCc3cccs3)ccc2C1	inconclusive: 100 µM [inhibitor, partial curve]
COc1cc(C(=O)N2CCCN(C)c3ccccc32)cc(OC)c1OC	inconclusive: 44.7 µM [inhibitor, partial curve]
Cn1ncc2c(C(=O)NC3Cc4ccccc4C3)cc(-c3ccccc3C(F)(F)F)nc21	inconclusive: 22.4 µM [inhibitor, full curve]
COc1ccc(-c2cc(C(=O)NCc3cccc(Cl)c3)c3cnn(C)c3n2)cc1	inactive
COc1cccc(CNC(=O)c2nc3sccn3c2-c2cccc(C(F)(F)F)c2)c1	inconclusive: 39.8 µM [inhibitor, full curve]

Structure (SMILES)	Potency
CCC(CC)C(=O)NC[C@@H]1C=C(C)[C@H](Cc2nc3ccc(C)cc3[nH]2)C[C@H]1C(C)C	active: 63.1 µM
O=C1CO[C@H]2CCN(Cc3ccccc3Cl)CC[C@@H]2N1c1ccccc1	active: 79.4 µM
CC(C)c1ccc(CC(=O)N2CCCc3ncc(C(=O)NCCCn4ccnc4)cc32)cc1	inconclusive: 89.1 µM [inhibitor, single point]
O=C(c1ccc(Cl)s1)N1CCc2nn(Cc3ccccc3)c(=O)n2CC1	inconclusive: 79.4 µM [inhibitor, single point]
COc1ccc(F)cc1-c1ccc(CN2CCC(NC(=O)c3ccccc3Cl)C2)cc1 (configuration not stated)	inconclusive: 56.2 µM [inhibitor, partial curve, poor fit]
COc1ccccc1C(C)N(C)C(=O)c1csc2nc(-c3ccccc3C)cn12 (configuration not stated)	active: 35.5 µM
COCCn1ccc2c(NC(=O)Cn3nc4c(cc3=O)CCCC4)cccc21	inactive
CCOc1ccc(C(=O)N2CC(COC)C3(CCOCC3)C2)cc1 (configuration not stated)	inactive
O=C(NCCc1ccccn1)C1CC(=O)N(c2n[nH]c3ccccc23)C1 (configuration not stated)	inactive
CN1CC(=O)N(C2CCCNC2)Cc2c(NC3CCCCCC3)ncnc21 (configuration not stated)	inconclusive: 89.1 µM [inhibitor, single point]
COc1ccc(-c2cc3c(cn2)CN(Cc2ccncc2)CCN3)cc1	inconclusive: 100 µM [inhibitor, partial curve]
COc1ccccc1Cn1c(=O)c(C(=O)N2CCN(C(=O)c3ccc(F)cc3)CC2)nc2cccnc21	inconclusive: 79.4 µM [inhibitor, single point]
CCn1c(C2CCCN(Cc3ccccn3)C2)nn(C)c1=O (configuration not stated)	inactive
CN1CCN(C(=O)c2ccc3nc(-c4ccncc4)oc3c2)CC1	inconclusive: 112 µM [inhibitor, partial curve, poor fit]
Clc1ccccc1Cc1nc(-c2ccc(OC3CCNC3)cc2)no1 (configuration not stated)	active: 17.8 µM
Oc1cccc(-c2cc(C[C@@H]3CC[C@H](O)[C@@H](CNC4CCC4)O3)no2)c1	inactive
Cc1ccc(-c2noc([C@@H]3C[C@@H](O)CN3C3CCCCC3)n2)cc1F	inactive
O=C(NCCCn1ccnc1)C1CCCN(c2nc(-c3ccccc3)nc3c2CCC3)C1 (configuration not stated)	inconclusive: 89.1 µM [inhibitor, single point]
Cn1ncc2c(C(=O)N3CCN(Cc4ccccc4)CC3)cc(-c3ccc(Cl)nc3)nc21	inconclusive: 50.1 µM [inhibitor, partial curve, poor fit]
CC1(C(=O)N2CCC2)CN(Cc2ccccc2)Cc2ccc(N3CCOCC3)nc21 (configuration not stated)	inconclusive: 100 µM [inhibitor, partial curve, poor fit]
Cc1ccc(-c2nnc3ccc(-c4ccoc4)nn23)nc1	inconclusive: 112 µM [inhibitor, partial curve]

— PubChem BioAssay AID1345083 (National Center for Advancing Translational Sciences (NCATS), 2018)
